Data reported in PubChem BioAssay AID1508642 (National Center for Advancing Translational Sciences (NCATS), 2021).
In all, about 43,000 compounds went through this assay and about 200 (0.47%) were called active. Not shown: some 12% with an inconclusive outcome. Calls come from the whole dose curve; as a rule, active = well fitted cell-killing curve with a large enough effect; inconclusive = small, poorly fitted or top-dose-only effect, or effect the other way; inactive = flat fitted curve, though single readings scatter. The list shows a part of the results.

Test: Cell viability qHTS assay in S16 Pmp22-F2sN cells; note: nearly all actives have a fitted effect of over 65% in size
Details: S16 Pmp22-F2sN Schwann cells viability, CellTiter-Glo, 24 h; series mostly up to 57.5 µM; activity change, negative = cytotoxicity: at the top concentration
Summary of the method: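 Used to flag compounds lowering reporter output through toxicity, this quantitative HTS measures ATP-based CellTiter-Glo luminescence in S16 Pmp22-F2sN Schwann cells after 24 h compound exposure at 37C.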
% is set by controls: 0 for no effect and ±100 for the full control effect.

Compound	activity change, negative = cytotoxicity
O=C(O)c1ccc(Cn2c(SCc3ccc(F)cc3)nc3ccncc32)cc1	inactive: -0.198%
COCCNc1ccc2cc(S(=O)(=O)N3CCCCC3)ccc2n1	inactive: 3.77%
Cc1ccc2nc(NC(=O)CSc3nccn3Cc3ccc(F)cc3)sc2c1	inactive: -1.4%
COc1cccc(N2CCN(C(=O)CN3CCSc4ccccc43)CC2)c1	inactive: 2.29%
Cc1ccccc1NC(=O)c1sc2nc3c(cc2c1N)CN(Cc1ccccc1)CC3	inactive: -23.4%
CCCS(=O)(=O)N1CCC(C(=O)NCCOC)CC1	inactive: -7.45%
Cc1cc(F)ccc1NC(=O)C1CCC(CNS(=O)(=O)c2ccc3c(c2)CCCC(=O)N3)CC1 (stereo unspecified)	inactive: -2.1%
O=C(Nc1sc2c(c1C(=O)NCC1CCCO1)CCCC2)c1cc(=O)c2ccccc2o1 (stereo unspecified)	inactive: 1.62%
O=C(CCn1c(=O)c2sccc2n(Cc2ccc(F)cc2Cl)c1=O)NCc1ccc2c(c1)OCO2	inactive: 6.08%
Cc1ccc(-c2nc3ccccc3o2)cc1NC(=O)Cc1ccc(Cl)cc1	inactive: 4.79%
Cc1cccc(-c2nc(CN3CCCC(C(=O)NCCc4ccc(Cl)cc4)C3)c(C)o2)c1 (stereo unspecified)	inactive: -25.2%
Cc1ccccc1CCNC(=O)c1ccc2c(c1)nc1n2CCCCC1	inactive: 0.0726%
Cc1cc(C)cc(NC(=O)C2CC(=O)N(c3ccccc3)C2)c1 (stereo unspecified)	inactive: -2.8%
Cc1ccc2c(c1)c1c(c(=O)n(Cc3ccccc3)c(=O)n1CC(=O)Nc1ccccc1F)n2C	inactive: 3.9%
Cc1ccc(-c2cc(C(=O)Oc3ccc(C#N)cc3)no2)cc1C	inactive: -3.38%
O=C(NCc1ccccc1)C(=O)Nc1c2c(nn1-c1ccccc1)CSC2	inactive: -24.2%
Cc1cc(-c2ccc(C)c(S(=O)(=O)NCC3CCN(Cc4ccccc4F)CC3)c2)on1	inactive: -23.1%
Cc1ccc(SCC(=O)Nc2ccc3oc(-c4cccc(Cl)c4)nc3c2)cc1	inactive: 1.72%
COc1ccc(OC)c(CNCc2c(C(=O)O)n(Cc3cccc(F)c3)c3cc(OC)ccc23)c1	inactive: -17.1%
Cc1ccc(C(c2c(O)cc(C)n(Cc3ccco3)c2=O)N2CCC(C)CC2)cc1 (stereo unspecified)	inactive: 14.8%
COc1ccc(CC(=O)NCC(c2ccc(Cl)cc2)N2CCOCC2)cc1 (stereo unspecified)	inactive: 15%

Compound	activity change, negative = cytotoxicity
Cc1ccc(C)c(Cn2c(=O)n(-c3ccc(Cl)cc3)c(=O)c3c(C)c(C)sc32)c1	inactive: 7.09%
Cc1ccc(Cn2c(=O)n(Cc3ccco3)c(=O)c3oc4ccccc4c32)cc1	inactive: -1.89%
CCOc1ccc(OCC)c(NC(=O)c2cnc(SC)nc2-c2ccccc2)c1	inactive: -15.5%
Cc1ccc(C)c(NC(=O)CSc2nc3c([nH]c4ccccc43)c(=O)n2-c2ccc(F)cc2)c1	inactive: -22.6%
Cc1ccc(Cc2cn3cc(-c4ccccc4)nc3s2)cc1	inactive: 6.37%
Cc1ccc(C)c(Oc2nc3c(c(=O)n(C)c(=O)n3C)n2Cc2ccccc2)c1	inactive: 7.61%
Cc1ccc(S(=O)(=O)c2nnn3c2nc(NC2CCCCC2)c2sccc23)cc1	inactive: -24%
CN(C)S(=O)(=O)c1ccc2c(c1)nnn2CCNC(=O)Nc1ccc(Cl)cc1	inactive: -26.4%
Cc1ccc2c(=O)cc(C(=O)Nc3ccc(S(=O)(=O)N4CCCCCC4)cc3)oc2c1	inactive: 12.3%
O=C(CSc1nc(=O)n(Cc2ccco2)c2c1CCC2)Nc1ccccc1C(F)(F)F	inactive: -2.89%
CCCCNC(=O)c1ccccc1NC(=O)CN(c1ccccc1)S(=O)(=O)N(C)C	inactive: 23.6%
Cc1ccc(Cl)cc1N1CCN(C(=O)c2cc(S(=O)(=O)N3CCCC3)c[nH]2)CC1	inactive: -18.5%
CCc1ccc(NC(=O)C2CCCN(S(=O)(=O)c3ccc(F)cc3)C2)cc1 (stereo unspecified)	inactive: 1.5%
CCc1nnc(SCC(=O)N(CC)c2ccccc2)c2cc3oc(C)cc3n12	inactive: 6.44%
CC(=O)N1CCCc2cc(S(=O)(=O)N3CCC(C(=O)NCc4ccccc4)CC3)ccc21	inactive: 3.63%
CCN(Cc1ccccc1)C(=O)Cn1c(=O)n(-c2ccc(Cl)cc2)c(=O)c2c(C)c(C)sc21	inactive: 13%
COc1ccc(OC)c(CCNC(=O)CCn2c(=O)c3cccn3c3ccc(F)cc32)c1	inactive: -0.165%
Cc1cccc(S(=O)(=O)c2cn(C)c3cc(N4CCN(c5ccc(F)cc5)CC4)c(F)cc3c2=O)c1	inactive: 3.14%
CC(C)c1ccc(NC(=O)CSC2=Nc3ccccc3C3=NC(CCC(=O)NCc4ccco4)C(=O)N23)cc1 (stereo unspecified)	inactive: -1.9%
Cc1ccc(CN2CCCN(Cc3c(C)cc(C)cc3C)S2(=O)=O)cc1	inactive: 2.98%
CCCSC1=NC2(CCN(C(=O)NC3CCCCC3)CC2)N=C1c1ccc(Cl)cc1	inactive: -0.771%

Compound	activity change, negative = cytotoxicity
Cc1cccc(CSc2nc(-c3cccc(C)c3)nc3c2Cc2c(CO)cnc(C)c2O3)c1	inactive: 15.7%
Cc1ccc(CNC(=O)CCS(=O)(=O)c2cc3c(cc2C)NC(=O)CO3)cc1	inactive: 11.3%
O=C(CSc1nc2c(oc3ccccc32)c(=O)n1Cc1ccco1)Nc1ccccc1	inactive: 6.6%
Cc1nn(Cc2noc(C(=O)NC(C)c3ccccc3)n2)c(C)c1Br (stereo unspecified)	inactive: -0.159%
Cc1ccc(N2CCN(S(=O)(=O)c3c(C)[nH]c(=O)[nH]c3=O)CC2C)cc1 (stereo unspecified)	inactive: 10.3%
CCCN(CCC)c1nn2c(=O)c(C(=O)NCc3cc(Br)ccc3OC)cnc2s1	inactive: 12.6%
COc1cc(Cl)c(C)cc1NC(=O)Cn1cc(S(=O)(=O)N2CCC(C)CC2)c2ccccc2c1=O	inactive: 2.19%
COc1ccc(C)cc1NC(=O)COCc1cc(-c2ccc(F)cc2)on1	inactive: 10.6%
CC(C)(C)C(=O)OCc1cc(=O)n2nc(C3CC3)sc2n1	inactive: 8.32%
CCCn1cc(S(=O)(=O)c2ccc(OC)cc2)c(=O)c2cc(F)c(N3CCCC(C)C3)cc21 (stereo unspecified)	inactive: -27.4%
CC(=O)c1ccc(NC(=O)C2=CC(c3ccc(C)cc3)=NS(=O)(=O)N2C)cc1	inactive: -15.2%
CCOc1ccc(-c2nonc2NC(=O)c2oc3ccc(C)cc3c2C)cc1OCC	inactive: -0.6%
COc1ccc(Cn2ccn(Cc3cccc(Cl)c3)c(=O)c2=O)cc1	inactive: 13.2%
Cc1ccc(S(=O)(=O)Cc2nc(-c3ccc(C(=O)NCc4ccccc4C)cc3)oc2C)cc1	inactive: 6.59%
CCCCCOC(=O)CSc1nc2sc3c(c2c(=O)n1-c1ccccc1)CC(C)(CC)OC3 (stereo unspecified)	inactive: 20.9%
Cc1ccc(C(=O)Nc2nc3nc(-c4ccccc4)cc(=O)n3[nH]2)cc1	inactive: -4.51%
CCOC(=O)c1noc2ncnc(N3CCN(c4cccc(C(F)(F)F)c4)CC3)c12	inactive: 2.33%
CC1CCN(C(=O)Cn2cc(SCC(=O)Nc3ccccc3)c3ccccc32)CC1	inactive: 10.5%
COc1cccc(-c2nc(SCC(=O)NCc3ccco3)c3c(=O)n(C)c(=O)n(C)c3n2)c1	inactive: 14%
